# Assay results from patent US20260184782A1 (TWIST BIOSCIENCE, published 2026).
# Numbering of substitutions follows the chain as printed.
# T1: TIGIT (UniProt Q495A1 22-141, limits assumed)
# T1 construct: construct not described; also called T cell immunoreceptor with Ig and ITIM domains
# T1 sequence (looked up): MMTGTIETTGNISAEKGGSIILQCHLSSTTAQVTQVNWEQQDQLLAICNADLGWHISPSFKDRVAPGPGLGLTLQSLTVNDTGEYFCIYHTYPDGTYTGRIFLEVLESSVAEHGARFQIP
# T2: TIGIT (UniProt Q495A1 22-141, limits assumed)
# T2 construct: also called T cell immunoreceptor with Ig and ITIM domains; hTIGIT
# T2 sequence (looked up): T1 sequence (looked up)
# B1: TIGIT-30-43 VHH-Fc (Fc fusion)
# chain: EVQLVESGGGLVQAGGSLRLSCAASGFTFSTSWMGWFRQAPGKERELVAARNSGGNTNYADSVKGRFTISADNAKNTVYLQMNSLKPEDTAVYYCAADVWYGSTWRNWGQGTQVTVSSGGGGS[in this place human IgG1 Fc with C220S (EU numbers)]
# B2: TIGIT-29-10 VHH-Fc (Fc fusion)
# chain: EVQLVESGGGLVQAGGSLRLSCAASGRTFSNYGMGWFRQAPGKEREFVSGISGSGGRTSYADSVKGRFTISADNAKNTVYLQMNSLKPEDTAVYYCAANLWYPVDRLNTGFNYWGQGTQVTVSSGGGGS[in this place human IgG1 Fc with C220S (EU numbers)]
# B3: TIGIT-30-30 VHH-Fc (Fc fusion)
# chain: EVQLVESGGGLVQAGGSLRLSCAASGGTFSGRGMGWFRQAPGKEREWVSSVYIFGGSTYYADSVKGRFTISADNAKNTVYLQMNSLKPEDTAVYYCANSNKPKFDWGQGTQVTVSSGGGGS[in this place human IgG1 Fc with C220S (EU numbers)]
# B4: TIGIT-31-32 (VHH-Fc) (Fc fusion)
# chain: B1 chain with A14P, R51M, N52T, N56G, A74S, V78A, Q113L
# B5: TIGIT-31-26 (VHH-Fc) (Fc fusion)
# chain: B1 chain with A14P, S30D, T31R, R51I, N52T, N56S, N58Y, A74S, V78A, Q113L
# B6: TIGIT-31-08 (VHH-Fc) (Fc fusion)
# chain: B1 chain with A14P, A74S, V78A, Q113L
# notes: also called TIGIT-31-8; 31-8
# B7: TIGIT-31-06 (VHH-Fc) (Fc fusion)
# chain: B1 chain with A14P, A50S, R51I, N52T, N56S, N58Y, A74S, V78A, Q113L
# notes: also called TIGIT-31-6; 31-6
# B8: TIGIT-31-56 (VHH-Fc) (Fc fusion)
# chain: EVQLVESGGGLVQPGGSLRLSCAASGRIFRRNSMGWFRQAPGKEREFVAVITRSGGGEVTTYADSVKGRFTINADNSKNTAYLQMNSLKPEDTAVYYCAMSSVTRGSSDWGQGTLVTVSTGGGGS[in this place human IgG1 Fc with C220S (EU numbers)]
# Biological target: T1, TIGIT
# Assay: ELISA
row,ELISA,Binder
1,13.5,B1
2,5,B2
3,8,B3

# Biological target: T2, TIGIT
# Assay: ELISA
row,ELISA,Binder
1,8,B4
2,5.1,B5
3,12.7,B6
4,9.6,B7
5,11.7,B8

# Biological target: T1, TIGIT
# Assay: TIGIT:CD155 blockade ELISA, biotin-CD155 as competitor
row,IC50,Binder
1,0.0023 µM,B1
2,0.0177 µM,B2
3,0.0057 µM,B3

# Biological target: T2, TIGIT
# Assay: TIGIT:CD155 blockade assay, competitor CD155
row,IC50,Binder
1,0.0029 µM,B4
2,0.0082 µM,B5
3,0.0039 µM,B6
4,0.004 µM,B7
5,0.0015 µM,B8

# Biological target: T1, TIGIT
# Assay: Carterra SPR, VHH-Fc
Kd,koff,kon,Binder
0.044 µM,0.013 s⁻¹,290000 M⁻¹ s⁻¹,B1
0.032 µM,0.0049 s⁻¹,150000 M⁻¹ s⁻¹,B2
0.023 µM,0.008 s⁻¹,350000 M⁻¹ s⁻¹,B3

# Biological target: T2, TIGIT
# Assay: SPR (Carterra), VHH-Fc
Kd,koff,kon,Binder
0.027 µM,0.015 s⁻¹,560000 M⁻¹ s⁻¹,B4
0.019 µM,0.0036 s⁻¹,190000 M⁻¹ s⁻¹,B5
0.045 µM,0.017 s⁻¹,380000 M⁻¹ s⁻¹,B6
0.014 µM,0.0035 s⁻¹,240000 M⁻¹ s⁻¹,B7
0.046 µM,0.021 s⁻¹,460000 M⁻¹ s⁻¹,B8
